Results: PMC12040169 (PLOS Biology, 2025)
Some of the results follow.

System: T1, C. trachomatis L2/434/Bu expressing GFP (CTL2-GFP)
T1 construct: L2/434/Bu GFP intracellular growth in HeLa cells
Design: species or system HeLa; C. trachomatis total inclusion area by high-content imaging, normalised to DMSO
Settings: total inclusion area; 28.5 h, 10 µM; inhibitor
Summary of the method: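 Bulk GFP and resorufin signals were read first. Wells were then fixed, stained with Hoechst and imaged to detect GFP inclusions and host nuclei. MICs followed the previously described calculation.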

Row | Structure (SMILES) | % of control remaining
1 | N#Cc1ccccc1NC(=O)CN1CCCCCC1 [CBK270088] | 114.171
2 | c1ccc(-c2nnc3ccccc3c2NCCCN2CCOCC2)cc1 [CBK066892] | 90.0371
3 | Cc1ccc(C(CC(=O)N2CCN(Cc3ccccc3)CC2)c2ccccc2)c(O)c1C (stereo not shown) [CBK262214] | 99.5726
4 | CCOc1cc(S(=O)(=O)NCCCN2CCOCC2)ccc1Br [CBK270111] | 102.62
5 | Cc1cccc(CN2CCCC[C@H]3CN(C(=O)c4cccs4)C[C@H]32)c1 [CBK285530] | 93.9549
6 | CCCC(=O)NC(c1ccc(OC)c(OC)c1)c1c(O)ccc2ccccc12 (stereo not shown) [CBK263269] | 99.2256
7 | Cc1cc(NS(=O)(=O)c2cccc(C(F)(F)F)c2)n(C)n1 [CBK067244] | 92.4038
8 | COc1cc(Cl)cc(C2NC(=S)NC(c3ccccc3)=C2C(=O)c2ccccc2)c1OCC(=O)O (stereo not shown) [CBK266332] | 107.365
9 | CC(C)C(=O)Nc1c(-c2ccsc2)cnc2ncccc12 [CBK083714] | 113.39
10 | c1ccc(-c2nc(C3CCNCC3)n3ccncc23)cc1 [CBK035434] | 117.283
11 | CC1=CCCN(C(=O)C23CCOCC2CN(c2ncc(F)cn2)C3)C1 (stereo not shown) [CBK304263] | 67.7009
12 | COC(=O)Cn1c(CN2CCN(c3ccccc3F)CC2)nc2c1c(=O)n(C)c(=O)n2C [CBK269444] | 102.51
13 | CC(C)(O)C#Cc1ccc(C(=O)N2CCC(C(N)=O)(N3CCCCC3)CC2)cc1 [CBK264065] | 111.029
14 | O=C(O)C[C@H](CNC(=O)COc1ccc2ccc(=O)oc2c1)c1ccc(Cl)cc1 [CBK286702] | 112.425
15 | Cc1cccnc1NC(=O)c1ccc(N2CCN(C)CC2)c([N+](=O)[O-])c1 [CBK269366] | 103.885
16 | Oc1ccc(/C=N/n2c(S)nnc2C(F)(F)F)cc1 [CBK265206] | 88.753
17 | CC(C)C[C@H]([C@@H]1C[C@@H](C(C)C)C(=O)O1)N1C(=O)c2ccccc2C1=O [CBK011526] | 49.8941
18 | Cc1c(C)n(O)[n+]([O-])c1-c1ccccc1 [CBK264510N] | 77.8747
19 | CCc1nc2ccc(C(=O)N(C)CCN(C)C)cn2c1N(CC)Cc1cccc(Br)c1 [CBK146962] | 86.6466
20 | CCOC(=O)CNC1CCCCC1 [CBK023276C] | 11.6076
21 | COc1ccc(C(=O)C2CCCCC23NCCN3)cc1 (stereo not shown) [CBK023140] | 13.6985

Row | Structure (SMILES) | % of control remaining
22 | COc1ccc(-c2ccc(SCC(=O)Nc3cc(C)on3)nn2)cc1 [CBK287634] | 77.9665
23 | COc1ccnc(N2CCN(C(=O)c3cc(C(C)=O)cn3C)CC2)n1 [CBK306272] | 74.7089
24 | COCC(C)NS(=O)(=O)c1cc(Cl)ccc1OC (stereo not shown) [CBK270203] | 66.443
25 | C=C(C)CNC(=O)c1ccc(C)nc1N1CCOCC1 [CBK076389] | 71.1995
26 | CCN(CC)c1c(C)nc2ccc(C(=O)NCc3ccc(N(C)C)cc3)cn12 [CBK145961] | 122.679
27 | O=c1[nH]c2cccc3c2n1C[C@H](NCCc1ccccc1)C3 [CBK016688C] | 47.8207
28 | O=C(O)/C(=N\c1cccc2ccccc12)c1ccccc1 [CBK262224] | 10.0441
29 | CC(C)C(=O)Nc1cc2cccnc2nc1-c1ccc2c(c1)OCCCO2 [CBK073658] | 102.085
30 | O=c1ccccn1COCc1ccccc1 [CBK006438] | 105.254
31 | c1csc(C2Nc3ccccc3C3=NCCCN32)c1 (stereo not shown) [CBK284489] | 90.1377
32 | Cn1cc(-c2nc(C(=O)NCC3CCN(c4ccccc4)C3)cs2)cn1 (stereo not shown) [CBK305633] | 54.9948
33 | CSc1ncc(Cl)c(C(=O)Nc2sc3c(c2C(=O)NCC2CCCO2)CCC3)n1 (stereo not shown) [CBK268959] | 72.2901
34 | CCc1nnc(NS(=O)(=O)c2ccc(NC(=O)c3ccc([N+](=O)[O-])cc3)cc2)s1 [CBK045483] | 89.1325
35 | COc1ccccc1C(=O)NC1CN2CCC1CC2 (stereo not shown) [CBK018475C] | 41.3873
36 | O=C(CCCOc1ccccc1)N1CCN(c2cccc(Cl)c2)CC1 [CBK304354] | 61.6613
37 | COc1cc2c(cc1OC)CN(Cc1cc(=O)[nH]c(=O)[nH]1)CC2 [CBK126393] | 89.0987
38 | CCOc1ccc(S(=O)(=O)N2CCSC2c2ccc(OC)c([N+](=O)[O-])c2)cc1 (stereo not shown) [CBK263293] | 74.7916
39 | O=C1CC(NCc2ccccc2)C(=O)N1c1ccc(N2C(=O)CC(NCc3ccccc3)C2=O)cc1 (stereo not shown) [CBK263963] | 121.3
40 | OCc1ccc(OCCCOc2cccc3cccnc23)cc1 [CBK269674] | 76.714
41 | O=C(CCn1cnc2ccccc2c1=O)Nc1cccc(C(F)(F)F)c1 [CBK267687] | 103.004
42 | Oc1c(C(c2ccccc2)N2CCc3ccccc3C2)sc2ncnn12 (stereo not shown) [CBK287612] | 88.8734

Row | Structure (SMILES) | % of control remaining
43 | CCCn1cc(CN2C3CCC2CC(O)(c2ccccc2F)C3)cn1 (stereo not shown) [CBK282664] | 140.997
44 | O=c1[nH]cccc1-c1noc(-c2cnccn2)n1 [CBK288538] | 92.1857
45 | COc1ccc(C(NC(=O)C2CCN(Cc3ccc(OC)c(OC)c3)CC2)c2ccccc2C)cn1 (stereo not shown) [CBK081452T] | 108.176
46 | CC(C)(C)OC(=O)N1CCC(NCCc2ccccn2)C1 (stereo not shown) [CBK304839] | 82.0902
47 | COCCOc1ncccc1OCc1ccccc1 [CBK001456] | 81.4549
48 | O=C(COc1ccc(Cl)cc1Cl)OCCNC1=NS(=O)(=O)c2ccccc21 [CBK264905] | 87.9289
49 | CC(C)CNc1nc(-c2cccc(O)c2)cnc1N [CBK063862] | 110.418
50 | O=C1CCCN1CCCNc1nccnc1-c1ccncc1 [CBK036832] | 112.136
51 | O=C(Nc1ccc(Cn2cncn2)cc1)C1CC2C=CC1C21CC1 (stereo not shown) [CBK281399] | 122.377
52 | CCOC(=O)c1[nH]c2ccccc2c1NS(=O)(=O)Cc1ccccc1[N+](=O)[O-] [CBK047426] | 81.9091
53 | C/C(CC(=O)Nc1ccc(C)cc1)=N\NC(=O)c1cccc(O)c1 [CBK262618] | 93.329
54 | COc1ccc(/C=C(\C#N)c2nc3ccccc3n2Cc2c(C)ccc3ccccc23)cc1 [CBK262960] | 66.1596
55 | O=C(NCc1ccccc1)[C@H]1CN2CCC1C[C@@H]2Cn1cc(-c2ccc(F)cc2)nn1 (stereo partly shown) [CBK288736] | 89.8939
56 | O=C(CSc1ccccn1)Nc1ccc(CN2CCOCC2)cc1 [CBK306072] | 68.466
57 | CC(=O)c1ccc(C)cc1OC(=O)C1CCCN(S(C)(=O)=O)C1 (stereo not shown) [CBK306140] | 85.4258
58 | O=S(=O)(c1ccc(Br)cc1F)N1CCCCC1CO (stereo not shown) [CBK051302] | 50.844
59 | CC(Oc1ccc(Br)cc1)C(=O)Nc1nc2c(s1)CCC2 (stereo not shown) [CBK296723] | 57.1885
60 | CCOC(=O)c1cnn(C2CCCN(c3cccc(C#N)n3)C2)c1 (stereo not shown) [CBK306430] | 49.1866
61 | COC1C(O)C(CO)OC1n1cnc2cnc(N)nc21 (stereo not shown) [CBK201290] | 105.865
62 | CCOc1ccc(CC(=O)NN2CCOCC2)cc1OCC [CBK268150] | 101.772
63 | CCc1ccc(C(=O)Nc2ccc(NC(C)=O)cc2C(F)(F)F)cc1 [CBK295202] | 97.1163

Row | Structure (SMILES) | % of control remaining
64 | Cc1nsc(NCc2ccccc2CN2CCCC2CO)c1C#N (stereo not shown) [CBK304124] | 53.2525
65 | O=c1[nH]nc(SCc2ccccc2Cl)c(=S)[nH]1 [CBK027795] | 30.9928
66 | CC(CO)(CO)NCc1ccc(-c2ccccc2)cc1 [CBK268325C] | 96.884
67 | CN(C)CCNC(=O)CSc1ccccc1 [CBK268426] | 83.2702
68 | CCCCN(C=O)c1c(CC)nc2ccc(C(=O)N3CCN(C)CC3)cn12 [CBK145707] | 105.049
69 | COCCCNCCn1cnc2c(N)ncnc21 [CBK277059] | 93.6416
70 | Cc1cc(C)nc(Nc2n[nH]c(-c3cccnc3)n2)n1 [CBK267120] | 100.716
71 | O=C(CC(CN1CCN(c2ccccn2)CC1)C(=O)O)NC1CCCCC1 (stereo not shown) [CBK286812] | 118.923
72 | O=C(O)c1ccc(Br)c(S(=O)(=O)NCc2ccccc2)c1 [CBK263202] | 106.896
73 | Cc1cc2c(cc3c(=O)n(CC(=O)N4CCCCC4)nc(C)n32)s1 [CBK284063] | 84.3755
74 | O=[N+]([O-])c1ccc(Cc2cc[n+](-c3nc4ccccc4nc3[N-]S(=O)(=O)c3ccc([N+](=O)[O-])cc3)cc2)cc1 [CBK301201] | 90.9145
75 | CN(CC(=O)O)C(=O)c1ccc(S(=O)(=O)N2CCCCC2)cc1 [CBK265715] | 94.6423
76 | COc1ccc(C(=O)Nc2cncc(OC3CCNCC3)n2)cc1 [CBK036370T] | 102.122
77 | Cc1ccc(CN(CCCn2ccnc2)Cc2ccccn2)o1 [CBK283102] | 96.7107
78 | Cc1nc(C)n(CC2CCCN2Cc2cn3ccccc3c2C#N)n1 (stereo not shown) [CBK304006] | 83.6365
79 | CCOc1ccc(-c2cncc(N3CCC(C(=O)O)CC3)n2)cc1 [CBK065870] | 143.359
80 | CCN1CCC(CC(=O)N2CCC(c3ccccc3)C2)CC1 (stereo not shown) [CBK281958] | 125.172
81 | COCCC(=O)NC(Cc1ccsc1)c1nc(C)cs1 (stereo not shown) [CBK282830] | 87.9776
82 | O=C(O)CC1(CNC(=O)Cn2nc(-c3ccccc3)ccc2=O)CCCCC1 [CBK286866] | 61.3767
